# Read counts are not given, so values of variants with three or more changes are uncertain.
# B1: LINE1-mini (parent)
# chain: GGCAGAGCUCAACACAGCGUGGCAAAGUGGCUGUGGCUAGACUGCC
# Variants of: B1
# Assay: self-cleavage, relative activity (ratio to wild type); higher = more cleavage; in vitro, sequencing; the parent is a self-cleaving ribozyme
row,Variant,self-cleavage
1,G2A A25C C37U,0.06
2,G2A A25C C37G,0.13
3,G2A A4G C15U C42G,0.01
4,G2A C3U A11C G27U G33C C42A C46G,0.02
5,G2A A4U C8A C23G A41C,0.26
6,G1U G30U G36A,0.04
7,G2A A4C A12U G22U U28A,0.26
8,G1U G30A G33U A39U C45G,0.05
9,G1U U9A A16G G30U C46A,0.02
10,G1U G35A U43G,0.01
11,G2A A4U A6G C23A G27A C45G,0.04
12,G1U U32A G44A,0.06
13,G2A C3A U9C C10U G21A C37G,0.28
14,G2A C10A C23U U32G,0.02
15,G2A A16C G19U G22U,0.03
16,G2A A14C G30U C45U,0.33
17,G2A A14C G30A G40C,0.07
18,G2A C8A C23G G29A C42G G44C,0.21
19,G1U U28A A41C,0.01
20,G1U U28C G36U,0.04
21,G1U U20A G21C,0.03

row,Variant,self-cleavage
1,G1U U34G G36C G40C A41U C46G,0.03
2,G2A A6G G22C C42U,0.03
3,G1U U34C C45U,0.08
4,G2A A6G G27U,0.28
5,G1U G30C U38A,0.1
6,G1U U28G U43G,0.06
7,G2A A4G G21U,0.29
8,G2A C8U G17U G33C,0.12
9,G1U U9A C37A,0.09
10,G2A A6C C10A A24C,0.04
11,G2A A6U C10U,0.37
12,G2A A6U C10A,0.11
13,G2A A11G A14U G35U U43G,0.02
14,G2A A4G A12G U38A A41G,0.05
15,G2A A4C G17C G22C U43A,0.05
16,G2A A11C G19U,0.03
17,G2A A11G A12C C13A G33C,0.01
18,G2A A11U G22U C23U A39G C42A,0.04
19,G2A C3G C8U C18A G19U,1.21
20,G1U U9A U28A,0.01
21,G2A C8A C42U,0.26

row,Variant,self-cleavage
1,G2A A16G G19U G21A,1.62
2,G1U U32C C37U,0
3,G2A C3U C10A A12C A24U G30A,0.07
4,G2A C3G G21U U32G G33A C37G C42G,0.08
5,G2A A24U G29A,1.43
6,G2A C8U C10A,0.08
7,G2A A39C G40U G44U,0.09
8,G2A C10A C13U G17A,0.13
9,G2A A16G U38G,0.1
10,G2A A11U G36C,0.03
11,G1U G27A G36A,0.1
12,G2A A14U C45U,2.05
13,G2A C8A G35A,0.5
14,G2A A6C C10G G19C U43C,0.02
15,G1U U9C C18U G29C G33A G36A,0.01
16,G1U U9C G17A G22U C42A,0.01
17,G2A C8G C13G,0.02
18,G2A C8A C18A A26G,1.59
19,G1U G35C G44U,0.02
20,G1U G35U G40U,0.05
21,G2A C3U U20C G27A G36A C37G,0.19

row,Variant,self-cleavage
1,G2A A11U A26G A41U,0.05
2,G2A C3A C42A,0.61
3,G2A A25U A39G C42U C45A,0.25
4,G1U U9G A11G G40A A41U,0.02
5,G2A A4C G7A C31U G36U,0.17
6,G2A A4G A6U G19A C46A,0.54
7,G1U U9A A11G G19A A24U C37G,0
8,G1U G33A C37A G40A,0.04
9,G1U G27A G40U,0.01
10,G1U G29A U43G C46U,0.02
11,G2A C3A G22A U43C,0.54
12,G2A C8A G33U U43C,0.31
13,G1U U38G U43A,0
14,G2A C3G C23A A25C G27U,0.51
15,G2A A12G C15A G40A,0.02
16,G2A A4C C23A U32A C37G C42A,0.08
17,G1U G36U C37A G40U,0.01
18,G2A A11C C15A A16U A41U,0.02
19,G2A C3U G5A G22A G27U,0.36
20,G1U U9G G29U C37A A41C G44A,0
21,G2A C8U G19C U34G G35U,0.14

# Source: the RNAGym collection of RNA variant scans (doi:10.7554/elife.90254)
